For 91 compounds, Potency results are on record in PubChem BioAssay AID360 (National Center for Advancing Translational Sciences (NCATS), 2006).

In all, about 48,000 compounds went through this assay and about 550 (1.1%) were called active. About 4% were inconclusive and are not listed. Cut-off read from the data, not from the text of the source: active = potency below about 15 µM; inconclusive = mostly about 16 µM to 33 µM; inactive = weaker than that. The list shows a part of the results. Where only a bound is given, the exact number is not on record here.
Potency is the fitted concentration of half-maximal effect.

The target in the experiment is Lysosomal acid glucosylceramidase (Homo sapiens) (UniProt P04062). The experiment is described as follows: Glucocerebrosidase.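 Note: the screen sought inhibitors.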 The settings on record: purified enzyme, resorufin glucoside fluorescence (screen aimed at inhibitors), 20 min. In short, it runs like this: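 Compounds titrated against 0.2 nM normal enzyme, 30 uM resorufin beta-D-glucopyranoside substrate, citrate/phosphate buffer with taurocholate and tween-20, pH 5.9. Reaction ran 20 min at room temperature; fluorescence (Ex 548/Em 600) gave AC50.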
UniProt P04062, sequence (P04062 whole entry, looked up): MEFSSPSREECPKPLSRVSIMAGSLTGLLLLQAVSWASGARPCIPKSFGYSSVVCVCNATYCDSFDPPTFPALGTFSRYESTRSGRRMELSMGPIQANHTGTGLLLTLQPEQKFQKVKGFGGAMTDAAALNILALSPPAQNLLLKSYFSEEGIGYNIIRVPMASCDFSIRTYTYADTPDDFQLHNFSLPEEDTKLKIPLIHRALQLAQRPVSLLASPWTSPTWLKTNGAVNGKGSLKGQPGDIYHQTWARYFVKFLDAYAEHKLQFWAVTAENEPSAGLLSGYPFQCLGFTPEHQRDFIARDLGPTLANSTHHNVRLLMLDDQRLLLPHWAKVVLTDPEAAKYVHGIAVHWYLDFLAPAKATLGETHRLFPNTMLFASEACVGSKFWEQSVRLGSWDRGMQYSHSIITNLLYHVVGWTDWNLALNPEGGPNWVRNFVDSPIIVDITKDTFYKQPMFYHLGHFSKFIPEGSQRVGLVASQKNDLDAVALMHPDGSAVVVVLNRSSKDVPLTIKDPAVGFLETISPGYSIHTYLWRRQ
With `N#Cc1ccc(N2CCNCC2)c(F)c1`, the Potency was inactive: > 76.9 µM.

Consider `Cc1ccc2c(c1)CC1(CN2C)C(=O)NC(=O)N(c2ccccc2C)C1=O` (stereo unspecified), for which the Potency is inactive: > 76.9 µM. To `O=C(c1cc2ccccn2n1)N1CCC2(CC1)OCCO2` belongs inactive: > 76.9 µM; to `Cc1nn(-c2ccccc2)c2c1CC1(C(=O)N(C)C(=O)N(C)C1=O)C1CCCCN21` (stereo unspecified), inactive: > 76.9 µM. On to `Cc1ccc(-n2c(O)c(C=NCc3cccnc3)c(=O)[nH]c2=O)cc1C`, for which the Potency was inactive: > 76.9 µM. To `CCCC(=O)c1c(O)[nH]c(=O)[nH]c1=O` belongs inactive: > 76.9 µM; to `COCCCn1c(N)c(C(=O)OC(C)COC)c2nc3ccccc3nc21` (stereo unspecified), inactive: > 76.9 µM; to `CCSP1(=S)N=C(N2CCOCC2)C(C#N)=C2CCCN21` (stereo unspecified), inactive: > 76.9 µM. In the case of `NCCc1ccc(O)cc1` it was inactive: > 76.9 µM; in that of `CCCS(=O)(=O)N1CCC(C(=O)N2CCC3(CC2)OCCO3)CC1`, inactive: > 76.9 µM; in that of `COc1ccccc1N1C(=O)NC(=O)C2(Cc3cc(C)ccc3N(C)C2)C1=O` (stereo unspecified), inactive: > 76.9 µM. In the case of `CCOc1cccc(C2NCc3ccccc3-n3cccc32)c1O` (stereo unspecified) it was inactive: > 76.9 µM; in that of `CCCCn1c(O)c(C(C)=NCc2ccc(F)cc2)c(=O)[nH]c1=O`, inactive: > 76.9 µM; in that of `CCC1CCCCN1P(=O)(c1ccc(C)o1)C(C)(C)C` (stereo unspecified), inactive: > 76.9 µM.

As to `CCC(=NCc1ccco1)c1c(O)n(-c2ccc(OC)cc2)c(=O)[nH]c1=O`, the Potency is inactive: > 76.9 µM. To `O=C(Cc1ccccc1)N1CCN(CC2CC=CCC2)CC1` (stereo unspecified) belongs inactive: > 76.9 µM. In the case of `CN(C)c1ccc(P(=S)(N(C)C)N(C)C)cc1` it was inactive: > 76.9 µM. Take `CCOC(=O)C1C2NC(=O)N(Cc3ccccc3)C1(C)Oc1c(OC)cccc12` (stereo unspecified): the Potency was inactive: > 76.9 µM. In the case of `Cc1cccc(N2C(=O)CC(=O)NC2=O)c1` it was inactive: > 76.9 µM; in that of `O=C(c1cc(-c2cccnc2)nc2ccc(Cl)cc12)N1CCC2(CC1)OCCO2`, inactive: > 76.9 µM. In the case of `O=c1[nH]c(=O)n(Cc2ccco2)c(O)c1C=NCc1cccs1` it was inactive: > 76.9 µM. In the case of `CCOCCCNC(=O)CN1C2CCC1CC(O)(c1ccc(OC)cc1)C2` (stereo unspecified) it was inactive: > 76.9 µM. On to `CC(C)NS(=O)(=O)c1ccc(OCC(=O)N2CCN(Cc3ccccc3)CC2)cc1`, for which the Potency is inactive: > 76.9 µM. Consider `CN1C(=O)C(Cc2c[nH]c3ccccc23)C(=O)N(C)C1=O`, for which the Potency was inactive: > 76.9 µM. In the case of `CC(C(N)=O)N1CC(c2ccccc2)CC1=O` (stereo unspecified) it was inactive: > 76.9 µM; in that of `CC(C)Oc1ccc(Cc2c(O)[nH]c(=O)[nH]c2=O)cc1`, inactive: > 76.9 µM. Take `CCOC(=O)c1c(C)c(C(=O)N2CCC3(CC2)OCCO3)c(C)n1CC`: the Potency was inactive: > 76.9 µM. With `CCOC(=O)C(O)(c1ccc(N)c(OC)c1)C(F)(F)F` (stereo unspecified), the Potency was inactive: > 76.9 µM.

`CN1CCN(C(=O)COc2ccc(-c3nc4ccccc4s3)cc2)CC1`: the Potency result is “inactive”. Consider `CC(=O)C1=C(C)OC(N)=C(C(=O)OC(C)C)C12C(=O)Nc1ccccc12` (stereo unspecified), for which the Potency was inactive: > 76.9 µM. In the case of `COc1ccc(N2CCN(CCCN)CC2)cc1`, the Potency is inactive: > 76.9 µM.

As for `CC(C(=O)c1c[nH]c2ccccc12)N1CCc2ccccc2C1` (stereo unspecified), the Potency was inactive: > 76.9 µM.

For `C[N+]12CN3CN(CN(C3)C1)C2`, the Potency was inactive: > 76.9 µM. In the case of `C=CCn1c(O)c(C(C)=Nc2ccc(N(C)C)cc2)c(=O)[nH]c1=O` it was inactive: > 76.9 µM. To `CN(C)CCN=Cc1c(O)n(C2CCCCCC2)c(=O)[nH]c1=O` belongs inactive: > 76.9 µM; to `CC(=NCC1CCCO1)c1c(O)n(C)c(=O)n(C)c1=O` (stereo unspecified), inactive: > 76.9 µM. Turning to `O=c1[nH]c(=O)n(Cc2ccco2)c(O)c1C=NCc1ccco1`, the Potency was inactive: > 76.9 µM.

For the compound `C=Cn1ccnc1P(=S)(c1ccn(C)c1)c1nccn1C=C`, the Potency was inactive: > 76.9 µM. In the case of `COc1ccc(-n2c(=O)[nH]c3ccccc3c2=O)c(OC)c1` it was inactive: > 76.9 µM. In the case of `OC12CCCCC1C(c1ccccc1)NCC2` (stereo unspecified) it was inactive: > 76.9 µM; in that of `COc1ccc(-c2nc(CSCC(=O)N3CCC4(CC3)OCCO4)c(C)o2)cc1OC`, inactive: > 76.9 µM.

For the compound `CC(=O)c1c(O)n(C2CCCCCC2)c(=O)[nH]c1=O`, the Potency is inactive: > 76.9 µM.

Consider `Cc1nc2cc(C(F)(F)F)ccc2n1C1CCN(Cc2nnnn2Cc2cccs2)CC1`, for which the Potency is inactive: > 76.9 µM. In the case of `C=Cn1ccnc1P(=S)(c1cc(N(CC)CC)ns1)c1nccn1C=C` it was inactive: > 76.9 µM.

With `O=C1NC(=O)C2(Cc3ccccc3N3CCCC32)C(=O)N1c1ccccc1` (stereo unspecified), the Potency was inactive: > 76.9 µM. Take `CCCC1=C(C(=O)OCC)C2(C(=O)Nc3ccc(C)cc32)C(C#N)=C(N)O1` (stereo unspecified): the Potency is inactive: > 76.9 µM. To `O=C(Nc1cccc(OC(=O)N2CCOCC2)c1)N1CCOCC1` belongs inactive: > 76.9 µM; to `Cc1ccc(S(=O)(=O)NC(CC(=O)N2CCC3(CC2)OCCO3)c2ccco2)cc1` (stereo unspecified), inactive: > 76.9 µM. In the case of `CCOP(=S)(OCC)c1ccc(N(C)C)cc1` it was inactive: > 76.9 µM; in that of `CCOC(=O)C1=C(N)OC(C)=C(C(=O)OCCOC)C12C(=O)Nc1ccccc12` (stereo unspecified), inactive: > 76.9 µM. In the case of `CC12CN3CC(C)(CN(C1)C3c1ccncc1)C2=O` (stereo unspecified) it was inactive: > 76.9 µM; in that of `O=C1CC(=O)N(c2cccc(Cl)c2)C(=O)N1`, inactive: > 76.9 µM. On to `CN(C)CCc1nc2ccccc2c(=O)n1-c1ccccc1`, for which the Potency is inactive: > 76.9 µM. To `COc1cc(CN2C(=O)NC(=O)C3(Cc4cc(C)ccc4N(C)C3)C2=O)cc(OC)c1` (stereo unspecified) belongs inactive: > 76.9 µM. `CC(=O)C1C2c3ccccc3OC1(C)N=c1s/c(=C/c3cnn(C)c3)c(=O)n12` (stereo unspecified): the Potency was inactive: > 76.9 µM. In the case of `CC(C)OCCCNC(=O)c1c(N)n(Cc2cccs2)c2nc3ccccc3nc12` it was inactive: > 76.9 µM; in that of `CC#CP(=O)(OCC)C(O)(c1ccccc1)C(F)(F)F` (stereo unspecified), inactive: > 76.9 µM. In the case of `CCN(CC)CCCN=Cc1c(O)n(-c2ccccc2F)c(=O)[nH]c1=O` it was inactive: > 76.9 µM; in that of `OC1(c2ccccc2F)CC2CCC(C1)N2CCN1CCOCC1` (stereo unspecified), inactive: > 76.9 µM. To `CN1CCN(c2c[nH]c(=O)[nH]c2=O)CC1` belongs inactive: > 76.9 µM; to `O=C(c1cc2ccccc2oc1=O)N1CCC2(CC1)OCCO2`, inactive: > 76.9 µM. In the case of `COC(=O)C(C)Oc1cc(C)cc2oc(=O)c3c(c12)CCCC3` (stereo unspecified), the Potency was inactive: > 76.9 µM. To `COc1ccc(CCNC(=O)c2c(N)n(CCN3CCOCC3)c3nc4ccccc4nc23)cc1` belongs “inactive”; to `COC(=O)C1C2c3ccccc3OC1(C)N=c1s/c(=C/c3cn(C)nc3C)c(=O)n12` (stereo unspecified), inactive: > 76.9 µM. In the case of `Cn1c(C(=O)N2CCC(C(=O)N3CCC4(CC3)OCCO4)CC2)cc2sccc21` it was inactive: > 76.9 µM; in that of `COc1ccc(S(=O)(=O)Cc2ccc(C(=O)N3CCC4(CC3)OCCO4)o2)cc1`, inactive: > 76.9 µM.

Consider `Cc1nc2ncnn2c(C)c1CCC(=O)N1CCC2(CC1)OCCO2`, for which the Potency was inactive: > 76.9 µM. To `CC(=NCCCN1CCOCC1)c1c(O)[nH]c(=O)[nH]c1=O` belongs inactive: > 76.9 µM. To `CCN(CC)c1ccc(N=Cc2c(O)n(CCC3=CCCCC3)c(=O)[nH]c2=O)cc1` belongs inactive: > 76.9 µM. As to `CCOC(=O)C1SC2(C(F)(F)F)CC1(O)c1c(C)cc(C)nc1O2` (stereo unspecified), the Potency was inactive: > 76.9 µM. To `CCOC(=O)C1=C(N)Oc2cc(C)oc(=O)c2C12C(=O)N1c3c(cccc32)C(C)CC1(C)C` (stereo unspecified) belongs inactive: > 76.9 µM. On to `CCCCn1c(O)c(C(CC)=Nc2cccc(C(=O)O)c2)c(=O)[nH]c1=O`, for which the Potency is inactive: > 76.9 µM. `CCCCn1c(O)c(C(C)=Nc2ccc(OCC)cc2)c(=O)[nH]c1=O`: the Potency is inactive: > 76.9 µM. To `CC(=O)c1c(O)n(C)c(=S)n(-c2ccccc2)c1=O` belongs inactive: > 76.9 µM. In the case of `O=C(CNS(=O)(=O)c1ccc(Br)s1)N1CCC2(CC1)OCCO2` it was inactive: > 76.9 µM. In the case of `CCCCn1c(O)c(C(C)=Nc2ccc(C(=O)O)cc2)c(=O)[nH]c1=O` it was inactive: > 76.9 µM; in that of `O=C(NC1(C(F)(F)F)Oc2ccccc2O1)N1CCC2(CC1)OCCO2`, inactive: > 76.9 µM. As to `OC1(CN2CCOCC2)C2CC3CC(C2)CC1C3` (stereo unspecified), the Potency was inactive: > 76.9 µM.

On to `CSC(=Nc1ccccc1)c1c(O)n(C)c(=O)n(C)c1=O`, for which the Potency is inactive: > 76.9 µM. Take `COCCOC(=O)C1=C(C)OC(N)=C(C(=O)OC)C12C(=O)Nc1ccccc12` (stereo unspecified): the Potency was inactive: > 76.9 µM. To `O=C1CSC2N1CCNC21CCCCC1` (stereo unspecified) belongs inactive: > 76.9 µM; to `CN1CCN(c2nccc3c2ncn3C)CC1`, inactive: > 76.9 µM. On to `Cc1ccc(Cn2nnnc2CN2CCC(n3nnc4ccccc43)CC2)cc1`, for which the Potency is inactive: > 76.9 µM. To `CCCCn1c(O)c(C(C)=NC(Cc2c[nH]c3ccccc23)C(=O)OC)c(=O)[nH]c1=O` (stereo unspecified) belongs inactive: > 76.9 µM; to `COc1ccc(C(=O)N2CCOCC2)cc1S(=O)(=O)N1CCC(C)CC1`, inactive: > 76.9 µM; to `CC1(C)CC(=O)C(C2(O)C(=O)NC(=O)NC2=O)=C(O)C1`, inactive: > 76.9 µM.

As to `CCNc1ccc(P(=S)(N(C)C)N(C)C)cc1`, the Potency was inactive: > 76.9 µM.

For the compound `CCOP1(=S)Oc2cc3c(cc2C(C(=O)OC)(C(F)(F)F)O1)OCO3` (stereo unspecified), the Potency entry is “inactive”. In the case of `C=CCn1c(O)c(C(CC)=NCCCO)c(=O)[nH]c1=O` it was inactive: > 76.9 µM.

As to `O[C@H]1C2CCC1C(N1CCCCC1)CC2` (stereo partly specified), the Potency is inactive: > 76.9 µM. For `CCN(CC)CCOC(=O)c1cc2cc(COC)ccc2o1`, the Potency is inactive: > 76.9 µM.
